Source: the supplement of paper PMC8728848
Some of the results follow.

Experiments:
Experiment in all cases: glycan array binding signal (z-score within array); higher = stronger binding
Conditions in all cases: glycan notation: IUPAC condensed, linker removed
[1] = biological target: Fuc(a1-2)[Gal(a1-3)]Gal(b1-4)GlcNAc(b1-2)Man(a1-3)[Fuc(a1-2)[Gal(a1-3)]Gal(b1-4)GlcNAc(b1-2)Man(a1-6)]Man(b1-4)GlcNAc(b1-4)[Fuc(a1-6)]GlcNAc
Procedure, shortened: (§1)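 Glycan array binding is given as a within-array Z-score, which can be read as non-binding when negative. The arrays, 3228 of them, came from the Consortium for Functional Glycomics database and were retained only where the protein sequence was available. Z-scores were averaged across arrays of the same protein sequence at different concentrations or buffers and across linkers.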

[2] = biological target: Fuc(a1-2)[Gal(a1-3)]Gal(b1-4)GlcNAc(b1-3)GalNAc
Procedure, shortened: as §1

[3] = biological target: Fuc(a1-2)[Gal(a1-3)]Gal(b1-4)GlcNAc(b1-3)[Fuc(a1-2)[Gal(a1-3)]Gal(b1-4)GlcNAc(b1-6)]GalNAc
Procedure, shortened: as §1

[4] = biological target: Fuc(a1-2)[Gal(a1-3)]Gal(b1-4)GlcNAc(b1-6)GalNAc
Procedure, shortened: as §1

[5] = biological target: Fuc(a1-2)[Gal(a1-3)]Gal(b1-4)[Fuc(a1-3)]Glc
Procedure, shortened: as §1

[6] = biological target: Fuc(a1-2)[Gal(a1-3)]Gal(b1-4)[Fuc(a1-3)]GlcNAc
Procedure, shortened: as §1

[7] = biological target: Fuc(a1-2)[Gal(a1-3)]Gal(b1-4)[Fuc(a1-3)]GlcNAc(b1-3)GalNAc
Procedure, shortened: as §1

[8] = biological target: Fuc(a1-2)[Gal(a1-4)]Gal(b1-4)GlcNAc
Procedure, shortened: as §1

[9] = biological target: Fuc(a1-2)[GalNAc(a1-3)]Gal
Procedure, shortened: as §1

[10] = biological target: Fuc(a1-2)[GalNAc(a1-3)]Gal(b1-3)GalNAc(a1-3)[Fuc(a1-2)]Gal(b1-4)GlcNAc
Procedure, shortened: as §1

[11] = biological target: Fuc(a1-2)[GalNAc(a1-3)]Gal(b1-3)GalNAc(b1-3)Gal(a1-4)Gal(b1-4)Glc
Procedure, shortened: as §1

[12] = biological target: Fuc(a1-2)[GalNAc(a1-3)]Gal(b1-3)GlcNAc
Procedure, shortened: as §1

[13] = biological target: Fuc(a1-2)[GalNAc(a1-3)]Gal(b1-3)GlcNAc(b1-2)Man(a1-3)[Fuc(a1-2)[GalNAc(a1-3)]Gal(b1-3)GlcNAc(b1-2)Man(a1-6)]Man(b1-4)GlcNAc(b1-4)GlcNAc
Procedure, shortened: as §1

[14] = biological target: Fuc(a1-2)[GalNAc(a1-3)]Gal(b1-3)GlcNAc(b1-2)Man(a1-3)[Fuc(a1-2)[GalNAc(a1-3)]Gal(b1-3)GlcNAc(b1-2)Man(a1-6)]Man(b1-4)GlcNAc(b1-4)[Fuc(a1-6)]GlcNAc
Procedure, shortened: as §1

[15] = biological target: Fuc(a1-2)[GalNAc(a1-3)]Gal(b1-3)GlcNAc(b1-3)GalNAc
Procedure, shortened: as §1

[16] = biological target: Fuc(a1-2)[GalNAc(a1-3)]Gal(b1-3)GlcNAc(b1-6)GalNAc
Procedure, shortened: as §1

[17] = biological target: Fuc(a1-2)[GalNAc(a1-3)]Gal(b1-4)Glc
Procedure, shortened: as §1

[18] = biological target: Fuc(a1-2)[GalNAc(a1-3)]Gal(b1-4)GlcNAc
Procedure, shortened: as §1

[19] = biological target: Fuc(a1-2)[GalNAc(a1-3)]Gal(b1-4)GlcNAc(b1-2)Man
Procedure, shortened: as §1

[20] = biological target: Fuc(a1-2)[GalNAc(a1-3)]Gal(b1-4)GlcNAc(b1-2)Man(a1-3)[Fuc(a1-2)[GalNAc(a1-3)]Gal(b1-4)GlcNAc(b1-2)Man(a1-6)]Man(b1-4)GlcNAc(b1-4)GlcNAc
Procedure, shortened: as §1

[21] = biological target: Fuc(a1-2)[GalNAc(a1-3)]Gal(b1-4)GlcNAc(b1-2)Man(a1-3)[Fuc(a1-2)[GalNAc(a1-3)]Gal(b1-4)GlcNAc(b1-2)Man(a1-6)]Man(b1-4)GlcNAc(b1-4)[Fuc(a1-6)]GlcNAc
Procedure, shortened: as §1

[22] = biological target: Fuc(a1-2)[GalNAc(a1-3)]Gal(b1-4)GlcNAc(b1-3)Gal(b1-4)GlcNAc
Procedure, shortened: as §1

[23] = biological target: Fuc(a1-2)[GalNAc(a1-3)]Gal(b1-4)GlcNAc(b1-3)Gal(b1-4)GlcNAc(b1-3)Gal(b1-4)GlcNAc
Procedure, shortened: as §1

[24] = biological target: Fuc(a1-2)[GalNAc(a1-3)]Gal(b1-4)GlcNAc(b1-3)GalNAc
Procedure, shortened: as §1

[25] = biological target: Fuc(a1-2)[GalNAc(a1-3)]Gal(b1-4)GlcNAc(b1-3)[Fuc(a1-2)[GalNAc(a1-3)]Gal(b1-4)GlcNAc(b1-6)]GalNAc
Procedure, shortened: as §1

[26] = biological target: Fuc(a1-2)[GalNAc(a1-3)]Gal(b1-4)GlcNAc(b1-6)GalNAc
Procedure, shortened: as §1

[27] = biological target: Fuc(a1-2)[GalNAc(a1-3)]Gal(b1-4)[Fuc(a1-3)]GlcNAc
Procedure, shortened: as §1

[28] = biological target: Fuc(a1-2)[GalNAc(a1-3)]Gal(b1-4)[Fuc(a1-3)]GlcNAc(b1-3)GalNAc
Procedure, shortened: as §1

[29] = biological target: Fuc(a1-2)[GalNAc(a1-4)]Gal(b1-4)GlcNAc
Procedure, shortened: as §1

[30] = biological target: Fuc(a1-2)[GalNAc(b1-3)]Gal
Procedure, shortened: as §1

[31] = biological target: Fuc(a1-3)GlcNAc
Procedure, shortened: as §1

[32] = biological target: Fuc(a1-3)[Gal(b1-4)]Glc6S
Procedure, shortened: as §1

[33] = biological target: Fuc(a1-3)[Gal(b1-4)]GlcNAc
Procedure, shortened: as §1

[34] = biological target: Fuc(a1-3)[Gal(b1-4)]GlcNAc(b1-2)Man
Procedure, shortened: as §1

[35] = biological target: Fuc(a1-3)[Gal(b1-4)]GlcNAc(b1-2)Man(a1-3)[Fuc(a1-3)[Gal(b1-4)]GlcNAc(b1-2)Man(a1-6)]Man(b1-4)GlcNAc(b1-4)GlcNAc
Procedure, shortened: as §1

[36] = biological target: Fuc(a1-3)[Gal(b1-4)]GlcNAc(b1-2)Man(a1-3)[Fuc(a1-3)[Gal(b1-4)]GlcNAc(b1-2)Man(a1-6)]Man(b1-4)GlcNAc(b1-4)[Fuc(a1-6)]GlcNAc
Procedure, shortened: as §1

[37] = biological target: Fuc(a1-3)[Gal(b1-4)]GlcNAc(b1-3)Gal(b1-3)[Fuc(a1-4)]GlcNAc
Procedure, shortened: as §1

[38] = biological target: Fuc(a1-3)[Gal(b1-4)]GlcNAc(b1-3)Gal(b1-4)[Fuc(a1-3)]GlcNAc
Procedure, shortened: as §1

[39] = biological target: Fuc(a1-3)[Gal(b1-4)]GlcNAc(b1-3)Gal(b1-4)[Fuc(a1-3)]GlcNAc(b1-3)Gal(b1-4)[Fuc(a1-3)]GlcNAc
Procedure, shortened: as §1

[40] = biological target: Fuc(a1-3)[Gal(b1-4)]GlcNAc(b1-3)GalNAc
Procedure, shortened: as §1

[41] = biological target: Fuc(a1-3)[Gal(b1-4)]GlcNAc(b1-6)GalNAc
Procedure, shortened: as §1

[42] = biological target: Fuc(a1-3)[Gal(b1-4)]GlcNAc(b1-6)[Gal(b1-3)GlcNAc(b1-3)]Gal(b1-4)Glc
Procedure, shortened: as §1

[43] = biological target: Fuc(a1-3)[Gal(b1-4)]GlcNAc6S
Procedure, shortened: as §1

[44] = biological target: Fuc(a1-3)[Gal3S(b1-4)]Glc
Procedure, shortened: as §1

[45] = biological target: Fuc(a1-3)[Gal3S(b1-4)]GlcNAc
Procedure, shortened: as §1

B1: GS7807P-bth-537-23-537 (Bacteroides thetaiotaomicron) (protein)
chain: NYENINSNPYEAPDLSADGYALGSAMNNLAGCVVSPDVNTAQFTDCLLGGPLGGYFADSNAGFTETISNFNPKDDWSRVFLKSDKIIPTLYSNLTQVKLVSQNTNDPVPYAIAQVIKVAAMHRVTDAFGPIPYSQIGANGEIATPYDSQEVTYNTFFDELNAAIATLNENSNEQLVPTADYIYKGDVKKWIRFANSLKLRLAIRIAYANPVKAQQMAEEAVNPANGGVIESNADNATWNYFETSQNPIYVATRYNQVQTSDHGGVPCLTGGDTHAAADIICYMNGYKDNRREKFFTKSEWAGQDYVGMRRGIVIPELKTTGHKYSGVNIAPTSPLYWMNAAEVAFLRAEGQAVFNFSMGGTAESFYNQGIRLSFEQWGADGVEDYLKDDVNKPTAYTDPAGTNTYQNALSNITIKWNDSADKEEKQERIIVQKWIANWQLGNEAWADFRRTGYPKLIPVKENKSGGVVDSEKGARRMPYPLDEFVSNKANVEYAIANYLHGADNMATDVWWASKK
[1]
  glycan array binding signal (z-score): -0.368
[2]
  glycan array binding signal (z-score): 0.161
[3]
  glycan array binding signal (z-score): 0.192
[4]
  glycan array binding signal (z-score): -0.316
[5]
  glycan array binding signal (z-score): -0.398
[6]
  glycan array binding signal (z-score): -0.366
[7]
  glycan array binding signal (z-score): 0.004
[8]
  glycan array binding signal (z-score): -0.331
[9]
  glycan array binding signal (z-score): -0.237
[10]
  glycan array binding signal (z-score): -0.231
[11]
  glycan array binding signal (z-score): -0.368
[12]
  glycan array binding signal (z-score): -0.353
[13]
  glycan array binding signal (z-score): 0.034
[14]
  glycan array binding signal (z-score): -0.001
[15]
  glycan array binding signal (z-score): -0.32
[16]
  glycan array binding signal (z-score): -0.275
[17]
  glycan array binding signal (z-score): -0.209
[18]
  glycan array binding signal (z-score): -0.302
[19]
  glycan array binding signal (z-score): -0.271
[20]
  glycan array binding signal (z-score): 3.7
[21]
  glycan array binding signal (z-score): -0.355
[22]
  glycan array binding signal (z-score): -0.356
[23]
  glycan array binding signal (z-score): 0.178
[24]
  glycan array binding signal (z-score): -0.248
[25]
  glycan array binding signal (z-score): -0.268
[26]
  glycan array binding signal (z-score): -0.385
[27]
  glycan array binding signal (z-score): 1.16
[28]
  glycan array binding signal (z-score): 0.726
[29]
  glycan array binding signal (z-score): 0.234
[30]
  glycan array binding signal (z-score): 0.46
[31]
  glycan array binding signal (z-score): -0.318
[32]
  glycan array binding signal (z-score): -0.054
[33]
  glycan array binding signal (z-score): -0.344
[34]
  glycan array binding signal (z-score): -0.365
[35]
  glycan array binding signal (z-score): -0.004
[36]
  glycan array binding signal (z-score): 1.93
[37]
  glycan array binding signal (z-score): -0.173
[38]
  glycan array binding signal (z-score): -0.039
[39]
  glycan array binding signal (z-score): -0.353
[40]
  glycan array binding signal (z-score): -0.078
[41]
  glycan array binding signal (z-score): -0.197
[42]
  glycan array binding signal (z-score): 0.217
[43]
  glycan array binding signal (z-score): -0.365
[44]
  glycan array binding signal (z-score): -0.325
[45]
  glycan array binding signal (z-score): -0.061
